Structures are written as SMILES. The whole screen tested about 310,000 compounds, of which about 14,000 (4.5%) showed an effect of 50% or more. Effects have a minus sign here. The list shows a part of the results.
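Also: peak tail current of the secondary pulse compared with the same well before compound.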

For this assay, the target named is human ether-à-go-go-related gene (hERG) potassium channel (human, UniProt Q12809). Put plainly: primary screen, population patch clamp on CHO cells stably expressing hERG.
human ether-à-go-go-related gene (hERG) potassium channel, sequence (Q12809 whole entry, looked up): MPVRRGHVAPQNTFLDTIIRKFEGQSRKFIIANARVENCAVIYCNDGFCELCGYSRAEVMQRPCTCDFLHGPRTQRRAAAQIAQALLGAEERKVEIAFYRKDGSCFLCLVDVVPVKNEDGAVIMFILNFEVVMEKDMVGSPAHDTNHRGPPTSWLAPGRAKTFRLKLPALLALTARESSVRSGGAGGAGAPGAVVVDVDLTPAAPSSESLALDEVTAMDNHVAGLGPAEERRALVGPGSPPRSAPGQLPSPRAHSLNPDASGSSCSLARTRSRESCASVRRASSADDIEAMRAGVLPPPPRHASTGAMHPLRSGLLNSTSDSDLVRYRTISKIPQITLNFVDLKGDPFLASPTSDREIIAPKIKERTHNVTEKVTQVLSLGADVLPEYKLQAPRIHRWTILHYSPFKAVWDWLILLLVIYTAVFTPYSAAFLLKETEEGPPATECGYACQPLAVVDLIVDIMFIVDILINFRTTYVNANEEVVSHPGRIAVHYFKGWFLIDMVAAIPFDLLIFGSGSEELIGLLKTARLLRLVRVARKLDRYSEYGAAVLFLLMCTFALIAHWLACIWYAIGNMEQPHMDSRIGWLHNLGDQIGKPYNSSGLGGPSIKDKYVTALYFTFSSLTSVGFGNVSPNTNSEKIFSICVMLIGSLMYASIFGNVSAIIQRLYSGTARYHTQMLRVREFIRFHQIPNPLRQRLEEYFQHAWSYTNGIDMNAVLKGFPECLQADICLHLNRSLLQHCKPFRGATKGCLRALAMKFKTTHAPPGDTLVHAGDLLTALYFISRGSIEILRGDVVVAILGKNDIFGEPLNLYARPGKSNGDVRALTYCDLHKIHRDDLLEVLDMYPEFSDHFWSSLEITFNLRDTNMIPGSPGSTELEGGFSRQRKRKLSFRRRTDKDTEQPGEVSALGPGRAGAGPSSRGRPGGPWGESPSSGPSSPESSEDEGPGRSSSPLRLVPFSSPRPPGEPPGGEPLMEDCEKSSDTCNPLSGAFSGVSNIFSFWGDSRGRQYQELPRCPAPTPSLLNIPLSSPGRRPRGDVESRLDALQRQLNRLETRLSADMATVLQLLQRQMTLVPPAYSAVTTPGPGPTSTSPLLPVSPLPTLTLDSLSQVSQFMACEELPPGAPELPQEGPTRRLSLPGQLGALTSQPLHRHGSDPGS
As to `COc1ccc(-c2csc(N3CCN(c4cc(C)nc5ccccc45)CC3)n2)cc1OC`, the “hERG current change (%, negative = inhibition) at 10uM” value is listed as -48.9%.
Regarding `COc1ccccc1C(=O)Nc1cc2cc(Cl)ccc2oc1=O`, the “hERG current change (%, negative = inhibition) at 10uM” value is given as -1.76%.
As to `CN(CCO)C(=O)CCC(=O)Nc1ccc(S(N)(=O)=O)cc1`, the “hERG current change (%, negative = inhibition) at 10uM” value is recorded as -11.4%.
`C=CCN(CC=C)S(=O)(=O)c1ccc(NC(=S)NC(=O)/C=C/c2ccc(C)cc2)cc1`: the “hERG current change (%, negative = inhibition) at 10uM” value amounted to 6.12%.
Take `CCC(C)(C)n1nnnc1C(c1cc2cc(C)cc(C)c2[nH]c1=O)N1CCCC1` (stereo not drawn): the “hERG current change (%, negative = inhibition) at 10uM” value is -8.71%.
With `CC(C)CC(NS(=O)(=O)c1ccccc1)C(=O)O` (stereo not drawn), the “hERG current change (%, negative = inhibition) at 10uM” value came to 1.59%.
Take `O=C1CSCN1c1ccc(Cl)cc1`: the “hERG current change (%, negative = inhibition) at 10uM” value is listed as 5.84%.
Consider `O=c1c2ccccc2[nH]c(=S)n1Cc1cccnc1`, for which the “hERG current change (%, negative = inhibition) at 10uM” value is listed as 12%.
The value for `CCCCCOc1ccc(CSc2n[nH]c(C)n2)cc1` was 14.9%; that for `CNC(=O)C1CC(=O)N(CCCc2ccccc2)C(=Nc2ccccc2)S1` (stereo not drawn) was -5.47%; that for `O=C(CC(Cc1ccccc1)C(=O)O)NCCc1ccc2c(c1)OCO2` (stereo not drawn) was -16.3%.
For the molecule `O=C(Cc1ccccc1)N[C@H](c1ccccc1)P(=O)(O)CO`, the “hERG current change (%, negative = inhibition) at 10uM” value was 8.47%.
The value for `COc1ccc(Cl)cc1NC(=O)Cn1c(=O)n2nc(C)nc2c2ccccc21` was -8.07%; that for `COc1ccccc1C1C(C#N)=C(N)N(N(C)C)C2=C1C(=O)CC(C)(C)C2` (stereo not drawn) was 10.7%.
Consider `CCOc1ccc(NC(=O)CSCC(=O)O)cc1`, for which the “hERG current change (%, negative = inhibition) at 10uM” value was found to be 1.8%.
Turning to `O=C(CSc1nc2ccccc2c(=O)n1Cc1ccco1)NCCN1C(=O)CSC1=O`, the “hERG current change (%, negative = inhibition) at 10uM” value is -61.4%.
As to `CCOC(=O)[C@H]1[C@H]2COc3ccc(C)cc3[C@@H]2N2C(=O)c3ccc(C)cc3NC(=O)[C@@]12C`, the “hERG current change (%, negative = inhibition) at 10uM” value amounted to 3.7%.
For `CC(=O)c1cccc(NC(=O)c2ccc(N(Cc3ccc(C)cc3)S(C)(=O)=O)cc2)c1`, the “hERG current change (%, negative = inhibition) at 10uM” value was -10.1%.
For `CC(=O)c1ccc(S(=O)(=O)N2CCN(CCOc3ccc(Br)cc3)CC2)cc1`, the “hERG current change (%, negative = inhibition) at 10uM” value is -31.4%.
On to `CSCC(=O)N1CCCC(N2CCN(c3cccc(C(F)(F)F)c3)CC2)C1` (stereo not drawn), for which the “hERG current change (%, negative = inhibition) at 10uM” value is -48.1%.
`O=C(Oc1ccc(-c2cnc3ccccc3n2)cc1)c1cc([N+](=O)[O-])ccc1Cl`: the “hERG current change (%, negative = inhibition) at 10uM” value is recorded as 9.37%.
For the molecule `Cc1cnc(=O)[nH]c1SCc1cccc([N+](=O)[O-])c1`, the “hERG current change (%, negative = inhibition) at 10uM” value came to 2.35%.
For `Oc1cc(O)cc(/C=C/c2ccc(O)c(O)c2)c1`, the “hERG current change (%, negative = inhibition) at 10uM” value is given as -0.655%.
As to `COC(=O)c1cc(C(=O)N2CCc3ccccc32)cc([N+](=O)[O-])c1`, the “hERG current change (%, negative = inhibition) at 10uM” value is given as -9.72%.
As for `CCCN(C(=O)c1ccco1)c1nnc(-c2ccncc2)s1`, the “hERG current change (%, negative = inhibition) at 10uM” value was -20.9%.
With `COc1ccc(OC)c(NC(=O)N[C@H](Cc2ccccc2)C(=O)NN)c1`, the “hERG current change (%, negative = inhibition) at 10uM” value came to 12.1%.
As for `COc1ccc(OC)c(C(C)NC(=O)Nc2ccccc2)c1` (stereo not drawn), the “hERG current change (%, negative = inhibition) at 10uM” value was found to be 4.8%.
As for `CCOC(=O)N1CCN(C(=O)CSCc2ccccc2C)CC1`, the “hERG current change (%, negative = inhibition) at 10uM” value stood at 2.96%.
The value for `Cc1cccc(C)c1NC(=O)CCn1cnc2ccccc2c1=O` was 12.6%; that for `CC(C)Cc1cc(C(=O)N2CCCC(CO)(Cc3ccc(F)cc3)C2)no1` (stereo not drawn) was -10.6%.
Regarding `COc1cccc(OCC(O)CN2CCN(c3ccccn3)CC2)c1.Cl` (stereo not drawn), the “hERG current change (%, negative = inhibition) at 10uM” value was -12.7%.
The value for `Cc1c(NC(=O)c2ccc(S(=O)(=O)N(C)c3ccccc3)cc2)c(=O)n(-c2ccccc2)n1C` was 34%; that for `Cc1ccc2nc(N3C(=O)CNC3=S)sc2c1` was 30%.
Regarding `COc1cccc(NC(=S)Nc2cc(C(=O)O)ccc2N2CC3CC(C2)c2cccc(=O)n2C3)c1` (stereo not drawn), the “hERG current change (%, negative = inhibition) at 10uM” value amounted to 11.4%.
Regarding `S=C(Nc1ccccc1)N1CCn2c1nc1ccccc12`, the “hERG current change (%, negative = inhibition) at 10uM” value is reported as -11.9%.
In the case of `CCOC(=O)c1ccc(NC(=O)Nc2ccon2)cc1`, the “hERG current change (%, negative = inhibition) at 10uM” value worked out at 6.02%.
In the case of `O=C(c1ccc(NS(=O)(=O)c2ccc3[nH]c(=O)[nH]c3c2)cc1)N1CCCCC1`, the “hERG current change (%, negative = inhibition) at 10uM” value was 2.67%.
In the case of `O=C(NCC1CCCO1)c1ccc2c(=O)n(CC3CCCO3)c(SCC(=O)N3CCCC3)nc2c1` (stereo not drawn), the “hERG current change (%, negative = inhibition) at 10uM” value is reported as 3.95%.
For `CNC(=S)Nc1cccc([N+](=O)[O-])c1`, the “hERG current change (%, negative = inhibition) at 10uM” value is given as -14.6%.
The value for `Nc1nnc(CC(=O)N/N=C/c2ccc(-c3ccccc3Cl)o2)s1` was 3.77%; that for `O=C(Cn1c(=O)[nH]c2ccccc2c1=O)Nc1ccc2c(c1)OCCO2` was 7.87%; that for `Cc1cccc(CN2CCN(CC(C)C)C(CCO)C2)n1` (stereo not drawn) was 17.7%.
The value for `CN1CCN(C(=O)/C=C/c2cccc(Cl)c2)CC1` was -6.45%; that for `Cc1nnc(SCC(=O)NC(C)(C)C)n1NCc1cccc(Br)c1` was -6.68%.
For `COc1cccc(NC(=O)CCSc2ccc3ccccc3n2)c1`, the “hERG current change (%, negative = inhibition) at 10uM” value was -13%.
The value for `O=C(Nc1ccc2oc(-c3ccccc3)nc2c1)c1ccccc1F` was -4.55%; that for `Cc1cc(N2CCN(C)CC2)ccc1NC(=O)c1ccc(-c2ccc(Cl)cc2)o1` was -80%.
Consider `O=C1NC(c2ccccc2)=C(c2ccc3ccccc3n2)C(c2ccc(F)cc2)N1` (stereo not drawn), for which the “hERG current change (%, negative = inhibition) at 10uM” value is on record as -5.34%.
For `CCNS(=O)(=O)c1ccc(CCC(=O)N2CCN(c3ccc(OC)cc3)CC2)cc1`, the “hERG current change (%, negative = inhibition) at 10uM” value was -8.99%.
For `CCN(CC(=O)Nc1ccc2c(c1)OCCO2)S(=O)(=O)c1ccc(C)cc1`, the “hERG current change (%, negative = inhibition) at 10uM” value was -0.501%.
With `CC(C)OC(=O)CSc1nc(N)c(C#N)c(-c2cccs2)c1C#N`, the “hERG current change (%, negative = inhibition) at 10uM” value came out at 10.8%.
Consider `Cc1ccc(NC(=O)C(C)N2C(=O)c3ccccc3C2=O)nc1` (stereo not drawn), for which the “hERG current change (%, negative = inhibition) at 10uM” value was 28.5%.
Regarding `CCN(CC)C(=O)CC(c1ccccc1)c1ccco1` (stereo not drawn), the “hERG current change (%, negative = inhibition) at 10uM” value was 1.85%.
The value for `COc1ccc(N)cc1S(=O)(=O)Nc1ccccc1Cl` was 18.9%.
The value for `O=c1c(C/C=C/c2ccccc2)c(O)ccn1CCc1c[nH]c2ccccc12` was 5.72%; that for `O=C(O)CCCC(=O)Nc1ccc(Cl)cc1` was 21.6%; that for `CC(C)C(NC(=O)c1cccc(S(=O)(=O)N2CCOCC2)c1)C(=O)NCc1ccc(Cl)cc1` (stereo not drawn) was 4.43%.
As to `O=C(COc1ccccc1Cl)Nc1ccccc1C(=O)NC1CC1`, the “hERG current change (%, negative = inhibition) at 10uM” value is -14.9%.
The value for `COc1ccc(OC2CCN(S(=O)(=O)c3cccc(F)c3)CC2)cc1` was -5.81%; that for `CC(=O)c1cccc(NC(=O)CNC(=O)c2cc3ccccc3o2)c1` was -33%; that for `Cc1ccccc1N(C(=O)CNC(=O)c1ccco1)C(C(=O)NC1CCCCC1)c1ccncc1` (stereo not drawn) was -0.457%.
`CN1C(C(=O)NCc2cccc(C(F)(F)F)c2)CC2Cn3c(nc4cc5ccccc5cc43)C21` (stereo not drawn): the “hERG current change (%, negative = inhibition) at 10uM” value is -63.1%.
On to `COc1ccc(CNc2ncc(-c3ccccc3)n2C)c2ccccc12.O=C(O)C(=O)O`, for which the “hERG current change (%, negative = inhibition) at 10uM” value is on record as -34.5%.
The value for `COc1cccc(NC(=O)Cn2cc(C#N)c3ccccc32)c1` was 1.69%.
With `Cc1ccc(C(=O)OCC(=O)N(C)c2ccccc2)c(C)c1`, the “hERG current change (%, negative = inhibition) at 10uM” value was found to be 19.8%.
In the case of `COc1cc2c(C(=O)NCc3ccccn3)cn(CC(C)C)c(=O)c2cc1OC`, the “hERG current change (%, negative = inhibition) at 10uM” value was -3.21%.
As for `COCCOc1cc(N)c(Cl)cc1Cl`, the “hERG current change (%, negative = inhibition) at 10uM” value is listed as 15.5%.
`CC(=O)Nc1ccc(S(=O)(=O)Nc2ccc(S(=O)(=O)N3CCCCCC3)cc2)cc1`: the “hERG current change (%, negative = inhibition) at 10uM” value came to 5.32%.
The value for `O=S(=O)(c1ccc(Cl)s1)N1CCCc2cccc(O)c21` was 11.9%.
The value for `COc1ccc(N2C=C3C(=O)C(C)(OC(=O)CCc4ccccc4)C(=O)C=C3C=C2c2ccc(C#N)cc2)cc1` (stereo not drawn) was 7.77%; that for `Cc1ccc(NC(=O)CSc2nc(-c3ccco3)cc(C(F)(F)F)n2)cc1C` was -3.9%; that for `CCOCCOC(=O)c1ccc(-n2cnc(C)n2)nc1` was 16.3%.
`COc1cc(CN2CC(=O)N(c3cccc(Cl)c3C)C2=S)cc(OC)c1OC`: the “hERG current change (%, negative = inhibition) at 10uM” value was 8.69%.
The value for `Cc1sc(NC(=O)CSc2nnc(-c3ccccc3)o2)c(C#N)c1C` was 8.85%; that for `CCOc1cc(-c2nn3cnnc3s2)cc(OCC)c1OCC` was -15.4%; that for `CCCCNCC1C(Oc2ccc(Cl)cc2)C(=O)N1c1ccccc1C.Cl` (stereo not drawn) was -65.9%.
For the molecule `Cc1ccc(C(=O)Nc2cccnc2)cc1Cl`, the “hERG current change (%, negative = inhibition) at 10uM” value is recorded as 4.54%.
Turning to `CCOc1ccc(NC(=O)CCNS(=O)(=O)c2ccc3c(c2)CC(C)N3C(C)=O)cc1` (stereo not drawn), the “hERG current change (%, negative = inhibition) at 10uM” value is recorded as 6.98%.
On to `CC1CCCC(NC(=O)COC(=O)c2cccc(NS(=O)(=O)/C=C/c3ccccc3)c2)C1C` (stereo not drawn), for which the “hERG current change (%, negative = inhibition) at 10uM” value is given as 5.35%.
Regarding `CN(C)S(=O)(=O)c1ccc2[nH]cc(/C=C/c3nc4ccccc4c(=O)n3-c3ccccc3)c2c1`, the “hERG current change (%, negative = inhibition) at 10uM” value was found to be 14.6%.
For `Cc1ccc2cc(-c3noc(C4CCCCC4)n3)c(=O)[nH]c2c1`, the “hERG current change (%, negative = inhibition) at 10uM” value is on record as 19%.
On to `Cc1onc(-c2c(F)cccc2Cl)c1C(=O)OCC(=O)NC(c1ccccc1)c1ccccc1`, for which the “hERG current change (%, negative = inhibition) at 10uM” value is -13.9%.
The value for `CN1CCN/C1=C(/C(Cl)=C(Cl)Cl)[N+](=O)[O-]` was 25.9%; that for `Cc1ccc(CN(C#N)c2nc(C)cc(C)n2)cc1` was -4.91%.
As to `NS(=O)(=O)c1ccc(NC(=S)NCc2ccccc2Cl)cc1`, the “hERG current change (%, negative = inhibition) at 10uM” value is listed as 20.5%.
The value for `COc1cc(OC)c(C2CC(=O)N3CN(c4ccc(C)cc4)CSC3=C2C#N)cc1OC` (stereo not drawn) was 1.16%; that for `CCN(CC)CCN(C(=O)c1ccc(S(=O)(=O)N2CCCCC2)cc1)c1nc2cc3c(cc2s1)OCO3.Cl` was -37.6%.

Source of the values: publication PMC4336329 (PLoS ONE, 2015).
